Source: PMC11995724, “Antibiotic target discovery by integrated phenotypic and activity-based profiling of electrophilic fragments” (Cell chemical biology, 2025)
About 110 (3.4%) of roughly 3,200 compounds showed an effect of 50% or more. The list shows a part of the results.

tested on: T1, V. cholerae SAD30; set-up: species or system S. aureus MSSA476 (TSB) or V. cholerae SAD30 (LB); 384-well bacterial growth screen at 25 uM, OD600 relative to DMSO control; conditions: relative growth, OD600, LB; 25 µM; inhibitor
T1 construct: SAD30

Compound | % of control remaining
Cn1cc(C=C(C#N)C(=O)NC2CCCC2)c(-c2ccncc2)n1 [9-L16, 2-cyano-N-cyclopentyl-3-[1-methyl-3-(pyridin-4-yl)-1H-pyrazol-4-yl]prop-2-enamide] | 87.6275%
C=CC(=O)N(Cc1ccc(-n2cncn2)cc1)C1CC1 [3-J11, N-cyclopropyl-N-{[4-(1H-1,2,4-triazol-1-yl)phenyl]methyl}prop-2-enamide] | 88.9138%
C=CC(=O)Nc1c(C)ccn2ncnc12 [2-M08, N-{7-methyl-[1,2,4]triazolo[1,5-a]pyridin-8-yl}prop-2-enamide] | 90.3503%
C=CC(=O)Nc1ccc(C(=O)N2CCCCC2c2n[nH]c(C)n2)cc1 (stereo not shown) [3-E13, N-{4-[2-(5-methyl-1H-1,2,4-triazol-3-yl)piperidine-1-carbonyl]phenyl}prop-2-enamide] | 93.6776%
C=CC(=O)N(Cc1cc(C)cc2c(C)c(C)[nH]c12)CC1(C)COC1 [2-E07, N-[(3-methyloxetan-3-yl)methyl]-N-[(2,3,5-trimethyl-1H-indol-7-yl)methyl]prop-2-enamide] | 79.5426%
C=CC(=O)N(Cc1cccs1)C1CCc2cnn(C(C)C)c2C1 (stereo not shown) [1-L15, N-[1-(propan-2-yl)-4,5,6,7-tetrahydro-1H-indazol-6-yl]-N-[(thiophen-2-yl)methyl]prop-2-enamide] | 81.1659%
CC(Cl)C(=O)NC1CCc2cnn(C(C)C)c2C1 (stereo not shown) [7-H05, 2-chloro-N-[1-(propan-2-yl)-4,5,6,7-tetrahydro-1H-indazol-6-yl]propanamide] | 87.4938%
O=C(CCl)Nc1cc(-c2ccccc2)nn1-c1ccccc1 [4-A20, 2-chloro-N-(1,3-diphenyl-1H-pyrazol-5-yl)acetamide] | 107.656%
CCOc1cc(C=C(C#N)C(=O)NC(C)C)cc(Cl)c1O [9-I13, 3-(3-chloro-5-ethoxy-4-hydroxyphenyl)-2-cyano-N-(propan-2-yl)prop-2-enamide] | 84.9082%
Cc1cccc(C)c1NC(=O)C(C#N)=Cc1c(C)n[nH]c1C [8-O20, 2-cyano-3-(3,5-dimethyl-1H-pyrazol-4-yl)-N-(2,6-dimethylphenyl)prop-2-enamide] | 75.3909%
N#CC(=Cc1cccc(Cl)c1Cl)C(=O)NCCc1ccccc1 [8-J06, 2-cyano-3-(2,3-dichlorophenyl)-N-(2-phenylethyl)prop-2-enamide] | 78.9259%
CC(Cl)C(=O)N1CCCCCC1 (stereo not shown) [5-F11, 1-(azepan-1-yl)-2-chloropropan-1-one] | 91.2893%
C=CC(=O)N(CC)CC(=O)Nc1ccc2c(c1)nc1n2CCCCC1 [3-M19, N-[({1,8-diazatricyclo[7.5.0.0,2,7]tetradeca-2,4,6,8-tetraen-5-yl}carbamoyl)methyl]-N-ethylprop-2-enamide] | 96.6771%
C=CC(=O)Nc1ccc2oc(CC(C)(C)C)nc2c1 [3-K18, N-[2-(2,2-dimethylpropyl)-1,3-benzoxazol-5-yl]prop-2-enamide] | 84.5028%
Cc1cc(CN(C(=O)CCl)c2csnc2C)cs1 [5-C12, 2-chloro-N-(3-methyl-1,2-thiazol-4-yl)-N-[(5-methylthiophen-3-yl)methyl]acetamide] | 101.376%
Cc1nn(C)c(N2CCCN(C)CC2)c1CNC(=O)C(C)Cl (stereo not shown) [6-N17, 2-chloro-N-{[1,3-dimethyl-5-(4-methyl-1,4-diazepan-1-yl)-1H-pyrazol-4-yl]methyl}propanamide] | 91.6106%
CC(Cl)C(=O)Nc1ccc(OC(F)F)c(Cl)c1 (stereo not shown) [4-F18, 2-chloro-N-[3-chloro-4-(difluoromethoxy)phenyl]propanamide] | 60.5564%
C=CC(=O)N1CCCC(c2nc(C)no2)C1 (stereo not shown) [2-K12, 1-[3-(3-methyl-1,2,4-oxadiazol-5-yl)piperidin-1-yl]prop-2-en-1-one] | 86.0272%
O=C(CCl)Nc1ccc(S(=O)(=O)C(F)F)cc1 [4-N16, 2-chloro-N-(4-difluoromethanesulfonylphenyl)acetamide] | 111.279%
CC(Cl)C(=O)NC(C)C(=O)N1CCc2ccccc21 (stereo not shown) [7-M21, 2-chloro-N-[1-(2,3-dihydro-1H-indol-1-yl)-1-oxopropan-2-yl]propanamide] | 81.9428%
C=CC(=O)N1CCCC(n2cc(C)cn2)C1 (stereo not shown) [3-M12, 1-[3-(4-methyl-1H-pyrazol-1-yl)piperidin-1-yl]prop-2-en-1-one] | 95.9713%
COc1ccc2ccccc2c1C=C(C#N)C(=O)NC1CCCCC1 [8-P18, 2-cyano-N-cyclohexyl-3-(2-methoxynaphthalen-1-yl)prop-2-enamide] | 68.8647%
C=CC(=O)NCc1cc(-c2ccco2)on1 [1-A21, N-{[5-(furan-2-yl)-1,2-oxazol-3-yl]methyl}prop-2-enamide] | 97.0105%
O=C(CCl)N1N=C(c2ccco2)CC1c1cccc(Cl)c1 (stereo not shown) [5-M17, 2-chloro-1-[5-(3-chlorophenyl)-3-(furan-2-yl)-4,5-dihydro-1H-pyrazol-1-yl]ethan-1-one] | 105.748%
O=C(CCl)NC(Cc1ccccc1)c1ccccc1F (stereo not shown) [7-N10, 2-chloro-N-[1-(2-fluorophenyl)-2-phenylethyl]acetamide] | 82.4715%
Cc1cccc(C)c1NC(=O)CCl [5-P20, 2-chloro-N-(2,6-dimethylphenyl)acetamide] | 104.235%
COc1ccccc1NC(=O)C(C#N)=Cc1ccc(F)cc1 [8-E18, 2-cyano-3-(4-fluorophenyl)-N-(2-methoxyphenyl)prop-2-enamide] | 70.6322%
C=CC(=O)N1CCC(C(=O)NCC(C)(C)C2(O)CCCC2)CC1 [2-D14, N-[2-(1-hydroxycyclopentyl)-2-methylpropyl]-1-(prop-2-enoyl)piperidine-4-carboxamide] | 88.4975%
